# Test results as given in article PMC4336329 (PLoS ONE, 2015).
# Out of some 310,000 compounds screened, about 2,200 (0.71%) showed an effect of 50% or more. The effect is printed as a negative number. The list shows a part of the results.
# Molecular target: human ether-à-go-go-related gene (hERG) potassium channel (human, UniProt Q12809)
# Test: primary screen, population patch clamp on CHO cells stably expressing hERG
# Chain of human ether-à-go-go-related gene (hERG) potassium channel (Q12809 whole entry, looked up): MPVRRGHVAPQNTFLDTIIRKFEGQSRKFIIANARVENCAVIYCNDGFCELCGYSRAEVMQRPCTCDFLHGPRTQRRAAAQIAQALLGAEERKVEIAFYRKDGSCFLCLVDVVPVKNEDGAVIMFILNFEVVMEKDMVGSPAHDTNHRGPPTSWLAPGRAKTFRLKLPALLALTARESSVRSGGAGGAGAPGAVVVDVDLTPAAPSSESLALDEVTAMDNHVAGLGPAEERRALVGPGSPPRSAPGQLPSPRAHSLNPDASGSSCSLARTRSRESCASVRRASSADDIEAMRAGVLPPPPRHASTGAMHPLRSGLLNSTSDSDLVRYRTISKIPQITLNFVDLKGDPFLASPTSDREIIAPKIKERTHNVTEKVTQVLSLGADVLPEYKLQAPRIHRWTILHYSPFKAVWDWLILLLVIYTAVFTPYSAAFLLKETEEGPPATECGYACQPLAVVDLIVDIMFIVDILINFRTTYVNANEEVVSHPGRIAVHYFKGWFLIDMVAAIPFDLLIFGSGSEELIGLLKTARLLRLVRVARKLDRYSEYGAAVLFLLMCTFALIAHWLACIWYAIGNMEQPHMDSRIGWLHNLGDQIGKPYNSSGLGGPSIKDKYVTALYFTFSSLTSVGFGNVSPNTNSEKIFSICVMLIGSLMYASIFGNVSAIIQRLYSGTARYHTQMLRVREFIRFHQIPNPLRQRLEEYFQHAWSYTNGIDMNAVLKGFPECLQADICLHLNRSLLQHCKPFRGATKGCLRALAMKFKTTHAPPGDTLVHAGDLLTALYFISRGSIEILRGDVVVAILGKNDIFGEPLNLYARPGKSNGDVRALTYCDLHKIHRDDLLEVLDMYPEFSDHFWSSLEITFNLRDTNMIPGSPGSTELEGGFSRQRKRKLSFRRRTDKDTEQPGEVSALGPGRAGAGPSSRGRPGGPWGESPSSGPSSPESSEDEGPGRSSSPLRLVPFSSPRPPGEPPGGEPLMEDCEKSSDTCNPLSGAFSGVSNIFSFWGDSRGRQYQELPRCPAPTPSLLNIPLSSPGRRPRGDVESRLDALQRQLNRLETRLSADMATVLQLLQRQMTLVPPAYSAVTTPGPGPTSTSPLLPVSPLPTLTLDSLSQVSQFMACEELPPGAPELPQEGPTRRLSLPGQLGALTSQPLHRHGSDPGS
row,SMILES,"hERG current change (%, negative = inhibition) at 1uM [%]"
1,CC(NC(=O)C(=O)NCCN1CCN(C(=O)c2ccccc2Br)CC1)c1ccccc1 (centres unmarked),9.08
2,O=C(NCCCn1ccnc1)c1cccc(S(=O)(=O)Nc2ccccc2F)c1,20.5
3,CC(C(=O)Nc1ncn[nH]1)N1C(=O)c2ccccc2C1=O (centres unmarked),15.1
4,Cn1c(N)c(N=Nc2ccc(S(N)(=O)=O)cc2)c(=O)n(C)c1=O,16.5
5,CSc1ncccc1C(=O)OCC(=O)NC(C)C,-1.86
6,COc1cccc(-c2nc3ccc(O)cc3c(=O)o2)c1,7.85
7,CCN(C(=O)CSc1nnc(Nc2ccccc2C)s1)C1CCS(=O)(=O)C1 (centres unmarked),4.78
8,O=C(NCc1ccccc1)C1COc2ccccc2O1 (centres unmarked),5.4
9,Cc1ccc(C(=O)OCCN2CCN(c3ncc(C(F)(F)F)cc3Cl)CC2)cc1,12.6
10,CC(C)C[C@@]12C(=O)N(c3cccc(F)c3)C(=O)N1[C@H](c1ccc(Br)cc1)[C@@H]1C(=O)N(C(C)(C)C)C(=O)[C@@H]12,12.2
11,CCOC(=O)COc1cccc2c(=O)n(CC(=O)N3CCN(C(=O)OCC)CC3)ccc12,7.52
12,CCCCCn1cc(C(=O)C(=O)N2CCOCC2)c2ccccc21,7.53
13,CC(/C=C/c1ccccc1)=N/NC(=O)CNC(=O)c1ccccc1F,6.33
14,CCN(CC(=O)NC1CCS(=O)(=O)C1)S(=O)(=O)c1ccc(Cl)cc1C(F)(F)F (centres unmarked),0.233
15,Cc1nnc(SC(C)C(=O)Nc2sc3c(c2C#N)CCCC3)[nH]c1=O (centres unmarked),7.88
16,CCN(CC)CCCNC(=O)C1CCN(C(=O)c2cc3sccc3n2Cc2ccc(F)cc2)CC1,11.4
17,COc1ccc(-c2nnc3sc(CN4C(=O)c5ccccc5C4=O)nn23)cc1,14.7
18,CC(=O)c1ccc(C(=O)N2CCCC(CCC(=O)N(C)CCc3ccccn3)C2)s1 (centres unmarked),5.7
19,O=C(NCC1CCCO1)C1CCN(CC2CCCCC2)CC1 (centres unmarked),5.67

row,SMILES,"hERG current change (%, negative = inhibition) at 1uM [%]"
1,CSCCC(NC(=O)COc1ccccc1)C(=O)NCCOc1ccc(C)cc1 (centres unmarked),3.41
2,CN1CCN(c2nc3ccccc3c(=O)n2-c2ccccc2)CC1,4.87
3,Cc1ccc(CN2CCN(Cc3nc4ccccc4nc3C)CC2CCO)cc1 (centres unmarked),-65.3
4,CN(C)/C=C(\C(=O)c1ccc(Cl)cc1)c1nnnn1-c1ccc(Cl)cc1,7.83
5,COc1ccc(NS(=O)(=O)c2cc(NC(=O)c3cnccn3)ccc2OC)cc1Br,15.6
6,CC(=O)c1ccc(/C=C/c2nc3ccccc3n2C)o1,10.2
7,COc1ccc(NC(=O)C(c2cc3c(cc2[N+](=O)[O-])OCO3)N2CCN(C=O)CC2)cc1 (centres unmarked),-27.8
8,O=C1CCCN1CC(O)CS(=O)(=O)Cc1ccc(Cl)cc1 (centres unmarked),10.2
9,O=C(N/N=C\c1ccccc1OCc1ccccc1)c1ccco1,20.1
10,COc1ccc(S(=O)(=O)NCC2CCCN(Cc3cn(C)nc3C)C2)cc1 (centres unmarked),15
11,C(=N\N1CCOCC1)/c1cn(-c2ccccc2)nc1-c1ccccc1,2.98
12,CCc1cccc(NC(=O)C2CCCN(S(=O)(=O)c3cccnc3)C2)c1 (centres unmarked),11.1
13,CC(=O)/C=C\c1cn(-c2ncc(C(F)(F)F)cc2Cl)c2ccccc12,16
14,COCC(=O)N1CCCC(C(=O)c2ccc(Oc3ccccc3)cc2)C1 (centres unmarked),-16.6
15,Cc1cccc(CN2CCN(c3nc4nonc4nc3NC3CC3)CC2=O)c1,10
16,COC(=O)c1ccc(CN2CCCC(CCC(=O)NCc3ccc(C)o3)C2)cc1 (centres unmarked),-20.1
17,Cc1nnc(SC(C(=O)c2ccccc2)c2ccccc2)[nH]c1=O (centres unmarked),11.1
18,Cc1nnc(-c2cnn(C)c2N)n1Cc1cccc(Cl)c1,15.2
19,COc1ccc(CCN(C(=O)C(F)(F)F)C(C(=O)NC2CCCC2)c2cccs2)cc1OC (centres unmarked),9.48

row,SMILES,"hERG current change (%, negative = inhibition) at 1uM [%]"
1,O=C(NN=C1c2ccccc2-c2ccccc21)c1ccccn1,7.79
2,COc1ccc(NC(=O)CSc2nc3c(c(=O)n2C)SCC3)cc1OC,-1.01
3,COc1ccc(-c2nc(N)ncc2-c2ccccc2)c(O)c1,2.6
4,CCn1c(C)nnc1SCC(=O)Nc1nccs1,11.8
5,CC(=O)C1=C(C)NC(SCc2cccc3ccccc23)=C(C#N)C1c1ccco1 (centres unmarked),0.669
6,O=C(N/N=C/c1ccc2ccccc2c1)c1ccc(COc2ccc3c(c2)CCC3)o1,5.8
7,O=C(OCc1nc2ccccc2s1)c1ccc(Br)s1,18.6
8,Cc1ccc(N(C(=O)Cc2cccs2)C(C(=O)NC2CCCC2)c2ccncc2)cc1 (centres unmarked),10.2
9,CS(=O)(=O)N(CC(=O)N1CCc2ccccc2C1)c1ccc2c(c1)OCO2,2.09
10,O=c1[nH]c2ccc(NCc3ccc(F)cc3)cc2[nH]1,11.1
11,CCCC(=O)Nc1nc(-c2ccc3c(c2)OCCO3)cs1,2.27
12,CCn1cc(CN2CCC(C(=O)Nc3cccc(-c4cscn4)c3)CC2)cn1,6.14
13,O=C(CCCSc1nc(-c2ccco2)cc(C(F)(F)F)n1)NCC1CCCO1 (centres unmarked),5.5
14,O=C(CSc1nnc(COc2ccc(Cl)cc2)o1)NC1CCCCC1,-2.69
15,O=c1[nH]c(=O)n(-c2ccc(F)cc2)c(O)c1C=Nc1ccccc1N1CCCC1,3.66
16,Cc1cc(C)c(C#N)c(Cl)n1,-4.32
17,COc1ccccc1/C=C/C(=O)OCC(=O)N1c2ccccc2CC1C (centres unmarked),5.76
18,COc1ccc(CCNC(=O)C(=O)NCC2OCCN2S(=O)(=O)c2ccc3c(c2)OCCO3)cc1 (centres unmarked),11.7
